Experimental data as given in patent US11420968B2 (priority 2018, dated 2022).

Legend:
RS4;11 cells = test: cells; settings: Homo sapiens, RS4-11, 48 h, read-out: Cellular activity (IC50, nM) RS4;11
Molt-4 cells = test: cells; settings: Homo sapiens, MOLT-4, read-out: Cellular activity (IC50, nM) Molt-4

Row | Compound | IC50 (RS4;11 cells) | IC50 (Molt-4 cells)
1 | O=C(NS(=O)(=O)c1ccc(NCC2CCOCC2)c([N+](=O)[O-])c1)c1ccc(N2CCC3(CC2)CC(N2CCCC2c2cccc(Cl)c2C2CC2)C3)cc1Oc1cnc2[nH]ccc2c1 (single isomer, unassigned) [Example F72a, (R or S)-2-((1H-pyrrolo[2,3-b]pyridin-5-yl)oxy)-4-(2-(2-(3-chloro-2-cyclopropylphenyl)pyrrolidin-1-yl)-7-azaspiro[3.5]nonan-7-yl)-N-((3-nitro-4-(((tetrahydro-2H-pyran-4-yl)methyl)amino)phenyl)sulfonyl)benzamide] | 25 nM | 7890 nM
2 | CS(C)(=O)=NC1CCC(CNc2ccc(S(=O)(=O)NC(=O)c3ccc(N4CCC5(CC4)CC(N4CCC[C@H]4c4ccccc4C4CC4)C5)cc3Oc3cnc4[nH]ccc4c3)cc2[N+](=O)[O-])CC1 (single isomer, unassigned) [Example F97, 2-((1H-pyrrolo[2,3-b]pyridin-5-yl)oxy)-4-(2-((S)-2-(2-cyclopropylphenyl)pyrrolidin-1-yl)-7-azaspiro[3.5]nonan-7-yl)-N-((4-(((((1s,4s) or (1r,4r))-4-((dimethyl(oxo)-16-sulfaneylidene)amino)cyclohexyl)methyl)amino)-3-nitrophenyl)sulfonyl)benzamide] | 1 nM | > 10000 nM
3 | C[C@]1(O)CC[C@H](CNc2ccc(S(=O)(=O)NC(=O)c3ccc(-c4ccc(N5CC(F)(F)CC5c5ccccc5C5CC5)cc4)cc3Oc3cnc4[nH]ccc4c3)cc2[N+](=O)[O-])CC1 (single isomer, unassigned) [Example G133, (R or S)-3-((1H-pyrrolo[2,3-b]pyridin-5-yl)oxy)-4′-(2-(2-cyclopropylphenyl)-4,4-difluoropyrrolidin-1-yl)-N-((4-((((1r,4r)-4-hydroxy-4-methylcyclohexyl)methyl)amino)-3-nitrophenyl)sulfonyl)-[1,1′-biphenyl]-4-carboxamide] | 1.5 nM | 392 nM
4 | O=C(NS(=O)(=O)c1ccc(NCC2CCOCC2)c([N+](=O)[O-])c1)c1ccc(-c2ccc(N3CCC[C@@H]3c3ccccc3C3=CCN(C4CC4)CC3)cc2)cc1Oc1cnc2[nH]ccc2c1 (stereo in doubt) [Example A107, 3-((1H-pyrrolo[2,3-b]pyridin-5-yl)oxy)-4′-(2-(2-(1-cyclopropyl-1,2,3,6-tetrahydropyridin-4-yl)phenyl)pyrrolidin-1-yl)-N-((3-nitro-4-(((tetrahydro-2H-pyran-4-yl)methyl)amino)phenyl)sulfonyl)-[1,1′-biphenyl]-4-carboxamide] | 18 nM | 3180 nM
5 | O=C(NS(=O)(=O)c1ccc(NCC2CCOCC2)c([N+](=O)[O-])c1)c1ccc(-c2ccc(N3CCC[C@@H]3c3ccccc3-c3ccncc3)cc2)cc1Oc1cnc2[nH]ccc2c1 (stereo in doubt) [Example A116, 3-((1H-pyrrolo[2,3-b]pyridin-5-yl)oxy)-N-((3-nitro-4-(((tetrahydro-2H-pyran-4-yl)methyl)amino)phenyl)sulfonyl)-4′-(2-(2-(pyridin-4-yl)phenyl)pyrrolidin-1-yl)-[1,1′-biphenyl]-4-carboxamide] | 65 nM | 7040 nM
6 | CN1C2CCC1CN(c1ccccc1[C@H]1CCCN1c1ccc(-c3ccc(C(=O)NS(=O)(=O)c4ccc(NCC5CCOCC5)c([N+](=O)[O-])c4)c(Oc4cnc5[nH]ccc5c4)c3)cc1)C2 (stereo in doubt) [Example A119, 3-((1H-pyrrolo[2,3-b]pyridin-5-yl)oxy)-4′(2-(2-(8-methyl-3,8-diazabicyclo[3.2.1]octan-3-yl)phenyl)pyrrolidin-1-yl)-N-((3-nitro-4-(((tetrahydro-2H-pyran-4-yl)methyl)amino)phenyl)sulfonyl)-[1,1′-biphenyl]-4-carboxamide] | 38 nM | > 1000 nM
